Measured values published in PubChem BioAssay AID938 (National Center for Advancing Translational Sciences (NCATS), 2007).
Several values for one entry are separate records, joined by “and”; a condition that tells them apart may be missing. Identical values can stand only once. Screen size: about 73,000 compounds; about 1,800 (2.5%) were called active. Inconclusive results, whose numbers are uncertain, are shown with a selection of clear calls. The call rests on the fitted dose curve; in most records, active means well fitted activation curve with a large enough effect; inconclusive means small, poorly fitted or top-dose-only effect; inactive means no such curve, though single readings can be large or run the other way. No potency is given beside an inconclusive call; the fits are too rough.

Experiment: qHTS Assay for Agonists of the Thyroid Stimulating Hormone Receptor: Activators of Intracellular cAMP Concentrations in Parental HEK 293; further: nearly all actives have a fitted effect of over 55% in size; on activation: % of control where 0% means no effect
Conditions: parental HEK293 CNG cAMP sensor, membrane potential fluorescence; activation: at 57.1 µM (top of the series) unless noted
Summary of the method: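 Counterscreen for endogenous-receptor signalling: CNG-channel HEK 293 cells report cAMP rise by membrane depolarization. After 60 min dye equilibration with 100 uM RO 20-1724, compounds incubated 30 min before bottom-read fluorescence at 590 nm.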
Potency means the concentration at half of the fitted maximal effect; tags describe the fitted curve by direction and shape.

Compound | activation | Potency
CO[C@H]1COC(=O)C/C=C\[C@@H](C)COC(=O)[C@@H](CCSC)NC(=O)C/C=C\[C@@H]1C | inactive: 5.81% [at 11.4 µM] and inactive: 3.48% [at 11.4 µM] | –
COc1ccc(CN(C)CCc2ccccn2)cc1OC | inactive: 4.03% | –
CCOC(=O)c1c(NC(=O)c2ccoc2C)sc2c1CCC2 | – | inconclusive [activator, single point]
Cc1cc(C)c(S(=O)(=O)Nc2cccc(C(F)(F)F)c2)c(C)c1 | inactive: 4.86% | –
CCOC(=O)c1c(-c2ccc(C)o2)csc1NC(=O)CSc1nncs1 | – | active: 25.1 µM
CC(C)c1ccc(OCC(O)CN2CCN(c3ccccc3)CC2)cc1 (stereo not drawn) | inactive: 9.46% | –
Clc1ccc(OCc2nn3c(C4CCCCC4)nnc3s2)cc1 | inactive: 19.3% | –
CCOc1ccc(NC2=NCCC(=O)N2Cc2cccs2)cc1 | – | inconclusive [activator, single point]
O=C(CN1C(=O)c2ccccc2C1=O)Nc1ccccc1F | – | inconclusive [activator, partial curve]
CC(c1ccccc1F)n1cc(C(=O)NCCc2ccco2)nn1 (stereo not drawn) | – | inconclusive [activator, single point]
Cc1cc(N2CCN(c3nc4ccccc4s3)CC2)n2ncnc2n1 | – | inconclusive [activator, single point]
Cn1cccc1C(=O)N1CCC2(CC1)CN(Cc1cc(C(F)(F)F)cc(C(F)(F)F)c1)C2 | – | active: 15.8 µM
Cc1noc(C)c1C(=O)N1CCC2(CC1)CN(Cc1cc(C(F)(F)F)cc(C(F)(F)F)c1)C2 | inactive: 5.4% | –
O=C(NCC1CC1)[C@@H]1C[C@H]1[C@@H](NP(=O)(c1ccccc1)c1ccccc1)c1ccccc1 | – | active: 12.6 µM
CCOc1ccc(N2C(=O)CC(SCCN)C2=O)cc1 (stereo not drawn) | inactive: 15.3% | –
O=C(O)CN(c1ccc(F)cc1)S(=O)(=O)c1ccc2c(c1)OCCO2 | inactive: 11.6% | –
Cc1ccc(-c2noc(CCC(=O)N3CCCc4ccccc43)n2)cc1 | – | inconclusive [activator, single point]
CCOCCCNc1ncc2c(n1)CC(c1ccc(C)cc1)CC2=O (stereo not drawn) | – | inconclusive [activator, single point]
Cc1cc(NCCN2CCOCC2)n2nc(C)c(-c3ccc(Cl)cc3)c2n1 | inactive: -19.9% | –
CCN1CCN(C(=O)c2cc3c(-c4ccc(Cl)cc4)nn(C)c3s2)CC1 | inactive: 15.7% | –
CC1CCN(S(=O)(=O)c2cccc(C(=O)Nc3nccs3)c2)CC1 | – | inconclusive [activator, single point]
Fc1ccc(Br)cc1C1C=C(c2cccnc2)Nc2ncnn21 (stereo not drawn) | – | inconclusive [activator, single point]
COc1ccc(CNC2CCCCC2C)c(OC)c1 (stereo not drawn) | – | inconclusive [activator, single point]
COc1ccc(CN2CCN(c3cccc(C)c3C)CC2)cc1OC | – | inconclusive [activator, single point]

Compound | activation | Potency
CCC(c1nnnn1C1CCCC1)N1CCN(c2ccccc2)CC1 (stereo not drawn) | – | inconclusive [activator, partial curve]
Cc1cccc(N2C(N)=NC(N)=NC23CCCCC3)c1 | – | inconclusive [activator, single point]
O=C(c1ccco1)N1CCN(CC(O)Cn2c3ccccc3c3ccccc32)CC1 (stereo not drawn) | – | inconclusive [activator, single point]
COC(=O)NC(CC(C)=O)c1ccc(Cl)cc1 (stereo not drawn) | inactive: -0.71% [at 11.4 µM] | –
C=C(CC(=O)OC)C[C@]1(CC(=O)OC)CC2(CC=C(C)C)C(=O)C(C(=O)c3ccccc3)=C(OC(=O)c3ccc(Br)cc3)C(CC=C(C)C)(C1)C2=O (stereo partly drawn) | inactive: 0.997% [at 11.4 µM] | –
COc1ccc(NS(=O)(=O)c2cccc(-c3nnc4n3CCCCC4)c2)cc1 | – | inconclusive [activator, single point]
COc1ccc(NC(=O)CCCCC#Cc2ccccc2)cc1 | – | inconclusive [activator, full curve]
COC(=O)c1c(NC(=O)Cc2cccs2)sc(C(=O)N2CCCCC2)c1C | – | inconclusive [activator, partial curve]
O=c1c(-c2cc(F)cc(F)c2)nc2cnc(N3CCOCC3)nc2n1Cc1ccc(F)cc1 | – | inconclusive [activator, single point]
O=C1c2ccccc2C(Nc2ccc(F)c(Cl)c2)N1c1ccccn1 (stereo not drawn) | inactive: 13.1% | –
CCn1c(SCCOc2ccc(Cl)cc2)nnc1-c1cccs1 | – | active: 31.6 µM
COC(=O)c1ccc(NC(=O)CN2CCN(c3cccc(Cl)c3)CC2)cc1 | – | inconclusive [activator, partial curve]
O=C1c2ccccc2C(=O)N1CCSc1nnc(-c2ccco2)n1Cc1ccccc1 | – | inconclusive [activator, partial curve]
C[C@@H]1C=C[C@](Cc2ccccc2)(C(=O)NCCN2CCOCC2)N1C(=O)c1ccccc1 | – | active: 15.8 µM
CC(C)=CC(=O)Nc1ccc2c(c1)OCO2 | inactive: 2.3% | –
CC(=O)c1cnc(Nc2nc(C)c3cc(C)ccc3n2)nc1C | inactive: -1.78% | –
CCCC(c1nnnn1C1CCCCC1)N1CCN(C2CCCC2)CC1 (stereo not drawn) | – | active: 15.8 µM
COc1ccc(-n2c(=O)c(-c3cn(C)c4ccccc34)nc3cnc(N4CCNCC4)nc32)cc1 | – | inconclusive [activator, single point]
Cc1cc2cc(CN(Cc3ccc4c(c3)OCO4)C(=O)c3cnccn3)c3nnnn3c2cc1C | – | active: 31.6 µM
CCN(CC)C(=O)CSc1nc(C)cc(-c2cccs2)c1C#N | – | inconclusive [activator, partial curve]
CN(C)c1ccnc(-c2cccc(NS(C)(=O)=O)c2)n1 | inactive: 8.8% | –
Cn1cccc1Cc1nnc(SCC(=O)Nc2nc3ccccc3s2)n1CCc1ccccc1 | inactive: 28.2% | –
CCOC(=O)c1c(C)c(C(=O)Nc2ccc3c(c2)OCO3)c(C)n1C | inactive: 21.2% | –
COc1cc2c(cc1OC)C(COc1ccc(F)cc1)N(C(=O)c1ccco1)CC2 (stereo not drawn) | inactive: 27.2% | –
